From PMC13083723 (Patterns, 2026)
Out of some 5,400 compounds screened, about 190 (3.5%) showed an effect of 50% or more. The list shows a part of the results.

The molecules below were run on Vero-E6 (assay: primary screen, phospholipidosis by LipidTOX staining; higher = more effect of the substance). Settings: 10 µM.
Method in brief: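 Single-concentration screen at 10 μM, with DMSO 0.1 v/v % and amiodarone 10 μM as controls. Read-out is LipidTOX Red phospholipid staining, which tolerates aldehyde fixation, in Vero-E6 cells.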

Structure (SMILES)	result_ITMP
COc1cc2c(cc1O)C(CCc1ccc(Cl)cc1)N(C)CC2 (stereo not drawn)	64%
CC(=O)N[C@H]1[C@H]([C@H](O)[C@H](O)CO)OC(C(=O)O)=C[C@@H]1NC(=N)N	-15.8%
CCN(CC)Cc1ccc(C(=O)N(CCc2ccccc2OC)[C@@H]2CCNC2)cc1	29.5%
CNC(=N)NC(=O)Nc1c(C)cccc1C	2.12%
N#Cc1cnc2c(Cl)cc(NCc3cn(CCN4CCCCCC4)nn3)cc2c1Nc1ccc(F)c(Cl)c1	2.55%
Oc1ccc(/C=C/c2cc(O)cc(O)c2)cc1	-2.27%
CCOC(=O)Nc1ccc(NCc2c(C)cc(C)cc2C)cc1N	0.41%
CCOC(=O)Nc1ccc2c(c1)N(C(=O)CN(C)C)c1ccccc1CC2	-0.84%
COc1ccccc1N1CCN(CCCCN2C(=O)c3ccccc3C2=O)CC1	-0.85%
O=C(CCCCCCCC(=O)NCCO)NCCO	2.9%
O=C(O)c1cc(O)c2c(Cl)cc(Cl)cc2n1	-1.66%
CCOc1cc(OCC)c(C(=O)CCC(=O)O)cc1OCC	4.58%
CC(=O)Oc1c(C)cc(OCC(O)CNC(C)C)c(C)c1C (stereo not drawn)	2.08%
N#Cc1cc(NC(=O)C(=O)O)c(Cl)c(NC(=O)C(=O)O)c1	2.08%
Nc1c2c(nc3ccccc13)CCCC2O (racemic)	-3.81%
O=C(Nc1ccc(Oc2ccc(Cl)cn2)c(Cl)c1)c1ccccn1	-3.45%
O=C(/C=C/c1ccc2c(c1)OCO2)N1CCCCC1	-6.45%
Cc1cccc(C)c1OCC(C)N (stereo not drawn)	6.94%
Nc1nc(CC(=O)Nc2ccc(CCNC[C@H](O)c3ccccc3)cc2)cs1	-5.5%
COc1ccccc1OCC(O)CO (stereo not drawn)	-2.18%
CC(C)NCC(O)COc1ccc(CC(N)=O)cc1 (stereo not drawn) [R4A_0002533_001 / SPE_K44993696]	-2.42%
Cc1cc(=O)[nH]c(=S)[nH]1	-2.87%
Cc1ccc(-c2nn(C(C)(C)CNC(=O)c3ncccc3C)c3ncnc(N)c23)cc1	1.04%
CCOc1ccc(Nc2nc(-c3c(C)nc4ccccn34)cs2)cc1	3.19%

Structure (SMILES)	result_ITMP
Cc1cc(I)ccc1Nc1c(C(=O)NOCC2CC2)cc(F)c(F)c1F	-3.74%
Cc1c(C)c(NCC(=O)N(C)C2CCN(Cc3ccc(C(N)=O)cc3)CC2)c(C)c(C)c1N	-0.37%
CN(C)CCN1C(=O)c2cccc3cc(NC(N)=O)cc(c23)C1=O	-1.75%
O=P(O)(O)CP(=O)(O)O	2.58%
Cc1cccc(C)c1NC(=O)c1ccc(N)cc1	-1.86%
CC(=O)C1=C(O)[C@]2(C)C(=CC1=O)Oc1c(C(C)=O)c(O)c(C)c(O)c12	-3.21%
CC(=O)N(C)c1cc(-c2ccnc3c(C(=O)c4cccs4)cnn23)ccc1F	-1.48%
COc1ccc(C2(C#N)CCC(C(=O)O)CC2)cc1OC1CCCC1 (stereo not drawn)	0.09%
C=C1NCC[C@@H](C(=O)O)N1	0%
OB1OCc2cc(F)ccc21	-2.38%
COc1ccc(CCN(C)CCCN2CCc3cc(OC)c(OC)cc3CC2=O)cc1OC	-1.11%
O=C(OCC(O)CO)c1ccccc1Nc1ccnc2cc(Cl)ccc12 (stereo not drawn)	-1.62%
COc1cc(N)c(Cl)cc1C(=O)OCCCN1CCCCC1	0.68%
OC(c1ccc(-c2ccc(CN3CCN(Cc4ccncc4)CC3)cc2)c(F)c1)(C(F)(F)F)C(F)(F)F	-1.43%
CO[C@H]1CC=C2CCN3CCC4=C(CC(=O)OC4)[C@]23C1	-0.32%
CC(C)(O)CC(=O)[O-]	-6.24%
COc1cc2c(N3CCN(C(=O)Nc4ccc(OC(C)C)cc4)CC3)ncnc2cc1OCCCN1CCCCC1	23%
NC(=O)c1cn(Cc2c(F)cccc2F)nn1	-3.93%
Cc1cc(O)c2c(c1)C(=O)c1cccc(O)c1C2=O	-2.68%
OC[C@H]1O[C@@](CO)(O[C@H]2O[C@H](CO)[C@@H](O)[C@H](O)[C@H]2O)[C@@H](O)[C@@H]1O	-5.71%
CC[N+](CC)(CC)CCOc1ccc(/C=C/c2ccccc2)cc1	1.51%
CC1=C(C(=O)O)N2C(=O)[C@@H](NC(=O)[C@H](N)C3=CCC=CC3)C2SC1 (stereo partly drawn)	-1.02%
Cc1ccccc1C(=O)Nc1ccc(C(=O)N2CCCC(O)c3cc(Cl)ccc32)c(C)c1 (stereo not drawn)	1.63%
COc1ccccc1N1CCN(CCN2C(=O)c3ccccc3C(C)(C)C2=O)CC1	2.7%

Structure (SMILES)	result_ITMP
Cc1[nH]c(/C=C2\C(=O)Nc3ccc(F)cc32)c(C)c1C(=O)NC[C@H](O)CN1CCOCC1	-7.3%
CC(=O)C1C(=O)C=C(C)OC1=O (stereo not drawn)	0.74%
NC(=O)c1ccc(-c2nc(-c3ccc4c(c3)OCCO4)c(-c3ccccn3)[nH]2)cc1	-2.75%
Cc1cccc(C)c1NC(=O)CC12CCCN1CCC2	-2.24%
CC[C@H](C)[C@H](NC(=O)[C@H](Cc1ccc(O)cc1)NC(=O)[C@@H](NC(=O)[C@H](CCCNC(=N)N)NC(=O)[C@@H](N)CC(=O)O)C(C)C)C(=O)N[C@@H](Cc1cnc[nH]1)C(=O)N1CCC[C@H]1C(=O)N[C@@H](Cc1ccccc1)C(=O)O	-2.78%
O=P([O-])(O)C(O)(Cc1cccnc1)P(=O)(O)O	-2.68%
O=C(CN1CCN(C(=O)c2ccco2)CC1)Nc1cc(C(F)(F)F)ccc1Cl	-4.26%
CC(C)c1cc2c(cc1S(=O)(=O)O)[C@@]1(C)CCC[C@@](C)(C(=O)O)[C@@H]1CC2	-4.65%
COc1cc(C[C@@H](CO)[C@H](CO)Cc2ccc(O)c(OC)c2)ccc1O	-7.51%
CC[C@H](CC[C@@H](C)[C@H]1CC[C@H]2[C@@H]3CC=C4C[C@@H](O)CC[C@]4(C)[C@H]3CC[C@]12C)C(C)C	1.55%
N=C(N)NCCSSCCNC(=N)N	5.22%
CN(C)C(=O)C(CCN1CCC(O)(c2ccc(Cl)cc2)CC1)(c1ccccc1)c1ccccc1	67.2%
CC(C(=O)O)c1ccc2c(c1)[nH]c1ccc(Cl)cc12 (stereo not drawn)	-1.06%
CCCCc1cc2ccccc2c(OCCN(C)C)n1	37.6%
NC(=O)c1ccc(F)c2c1C[C@@H](N(C1CCC1)C1CCC1)CO2	-2.33%
CC(C)OC(=O)N[C@H]1Cc2c(n(Cc3ccccn3)c3ccc(C#N)cc23)C1	-5.59%
NC(=O)NCCN1CCN(c2cccc(C(F)(F)F)c2)CC1	3.97%
Cc1cccc(C)c1NC(=O)C(C)N (stereo not drawn)	-5.92%
C=CCc1cccc(/C=N/NC(=O)CN2CCN(Cc3ccccc3)CC2)c1O	-0.06%
O=C1c2c(O)cccc2C([C@@H]2O[C@H](CO)[C@@H](O)[C@H](O)[C@H]2O)c2cc(CO)cc(O)c21 (stereo partly drawn)	-1.48%
CN1C[C@@H]2CN(c3ccc(-c4ccccc4)nn3)C[C@@H]2C1	-1.43%
O=C(Nc1cc(Oc2cc(F)c(NC(=O)C3(C(=O)Nc4ccc(F)cc4)CC3)cc2F)ccn1)C1CC1	-1.82%
Cc1noc2c1-c1ccccc1C(c1ccc(Cl)cc1)=N[C@H]2CC(N)=O	-0.06%
O=C(Nc1cccc(C(F)(F)F)c1)Nc1cc(S(=O)(=O)NC2CC2)ccc1-c1ccsc1	12.9%

Structure (SMILES)	result_ITMP
COC(=O)[C@H](Cc1ccc([N+](=O)[O-])cc1)NC(=O)c1cccc2ccccc12	2.76%
CCCCCCCCCCCCCCCCCC(=O)OCC(O)[C@H]1OC[C@H](O)[C@H]1O (stereo partly drawn)	-4.16%
CCCC(CCC)C(=O)Nc1ccn([C@@H]2O[C@H](CO)[C@@H](O)C2(F)F)c(=O)n1	-1.7%
O=C(Nc1ccccc1-c1cn2c(CN3CCNCC3)csc2n1)c1cnc2ccccc2n1	-1.16%
CC(C)(C)NCC(O)COc1cccc2c1CCC(=O)N2 (stereo not drawn)	-0.45%
CNC(=O)c1cc(Oc2ccc(NC(=O)Nc3ccc(Cl)c(C(F)(F)F)c3)c(F)c2)ccn1	-4.14%
C/C=C1\C(=O)C[C@H]2[C@@H]3CCC4=CC(=O)CC[C@]4(C)[C@H]3CC[C@]12C	-1.45%
CC(C(=O)OC1CC2CCC(C1)N2C)c1ccc(Br)cc1 (stereo not drawn)	20.6%
CN(C)CC(=O)Nc1ccc2[nH]c(=O)c3ccccc3c2c1	0.11%
O=C([O-])c1cc2cc(Cc3cccnc3)ccc2o1	-0.95%
COc1cc2c(=O)c(-c3ccc(O)cc3)coc2cc1O	3.49%
Cc1[nH]c2ccc(O)cc2c1CCN	2.83%
CNC(=O)c1cc(Oc2ccc(NC(=O)Nc3cc(C(C)(C)C)nn3-c3ccc4ncccc4c3)c(F)c2)ccn1	40.5%
CCC/N=C1\S/C(=C\c2ccc(OC[C@H](O)CO)c(Cl)c2)C(=O)N1c1ccccc1C	-0.41%
OC[C@H]1O[C@H](O[C@]2(CCl)O[C@H](CCl)[C@@H](O)[C@@H]2O)[C@H](O)[C@@H](O)[C@H]1Cl	4.63%
CN1C2CC[C@@H]1C[C@@H](OC(=O)[C@H](CO)c1ccccc1)C2	-4.79%
Nc1nc2ccc(OC(F)(F)F)cc2s1	-2.22%
COc1ccc2c(c1)c(CC(=O)O)c(C)n2C(=O)c1ccc(Cl)cc1	-2.48%
O=C1[C@@H]2[C@H]3CC[C@H](C3)[C@@H]2C(=O)N1C[C@@H]1CCCC[C@H]1CN1CCN(c2nsc3ccccc23)CC1	3.52%
Cc1ncc(CN2CC=C(c3ccccc3)CC2)c(N)n1	1.09%
CN(C)CCCC(=O)Nc1ccc(C(=O)Nc2cccc(Nc3ncc(Cl)c(-c4c[nH]c5ccccc45)n3)c2)cc1	-2.25%
